167 variants from the RNAGym collection of RNA variant scans (doi:10.7554/elife.90254) can be followed below.

Read counts are not given, so values of variants with three or more changes are uncertain.

The labels stand for the following.
B1: LINE1-mini (parent)
chain: GGCAGAGCUCAACACAGCGUGGCAAAGUGGCUGUGGCUAGACUGCC

In this data set the parent is B1. Nature of the data set: self-cleavage, relative activity (ratio to wild type); higher = more cleavage; in vitro, sequencing; the parent is a self-cleaving ribozyme.
Regarding C3G A14U C31U, the self-cleavage came to 0.02. With C3G C13A G40U the figure was 0.07; with C3A U9G A14U G21A, 0.5; with C3G A4U C8U G44U, 0.18.

With C3G C8A A11U G21C G36A, the self-cleavage stood at 0.01.

On to C3G C10U G21A G30A A41C, for which the self-cleavage turned out to be 0.05. With C3A U9G C23U G29U A39G the figure was 1.02.

Consider C3G C10A U20C A24C, for which the self-cleavage is 0.01. In the case of C3G A26C U34G it was 0.05. With C3A U20G G21C G40C the figure was 0.14; with C3G A14U C23U C37A, 0.08.

Consider C3G C15A A26U G29A, for which the self-cleavage is 0.7. In the case of C3A U20G G40C it was 0.06.

C3A U9G G21U U28G C31U: the self-cleavage worked out at 0.02.

As to C3G C13A G19C G35A C45A, the self-cleavage was found to be 0.09. In the case of C3G A6G U9G C15U C18U G29C G35U U38G G44A it was 0; in that of C3G A6U C15A U38C, 0.1.

C3G A12G G17A C45U: the self-cleavage turned out to be 0.03. In the case of C3A G30U C45U, the self-cleavage amounted to 0.29. In the case of C3G A14C G17A G30C it was 0.08; in that of C3A U20C U28C C31G C37A, 0.05. In the case of C3G A4U U9G C15G it was 0.07. In the case of C3A G27C C31U U32C it was 0.32; in that of C3A U28A G33C G35U G40C G44C C45A, 0.01; in that of C3G A4G G33U G40U C45A, 0.05.

As to C3A G22C C46A, the self-cleavage came out at 0.16. With C3A G22C C46G the figure was 0.08. In the case of C3G A4G A11U A16U C18U G44A it was 0.02; in that of C3G A4C C8U A12U C15U A26U G30A G36U, 0.05; in that of C3G A11G G40C C46G, 0.01. As to C3A G35U C46A, the self-cleavage was found to be 0.17. Take C3A G21C C42A: the self-cleavage is 0.16. In the case of C3G A6U G7C C18A A39U C45G it was 0.01; in that of C3A G29A U32A C37A, 0.28. With C3G A4C G17C G33C G40A the figure was 0.01; with C3G C10A A14U A41G, 0.01; with C3G A16U C23A U28A G44U, 0.66. With C3G A4C C8G the figure was 0.06. For C3G A12G G30C, the self-cleavage was 0.08. As for C3G C13A U43A C45A, the self-cleavage turned out to be 0.11. In the case of C3A G22U C37U it was 0.12. With C3G C15A G19U C46A the figure was 0.03; with C3G A11C C13U C15A, 0.02; with C3G A6C A24U G30U C42G, 0.05. With C3G C8G A25C the figure was 0.29. Take C3G C10U G35C G36A: the self-cleavage was determined as 0.02. With C3A G29C C31A G36U the figure was 1.07. As for C3G A11U C13G G36A, the self-cleavage was found to be 0.

As for C3A U20A C23A G30C C31U C42A, the self-cleavage is 0.19. In the case of C3G C10A C18U U28C it was 0.05; in that of C3G A16C G22U A41U G44C, 0.01; in that of C3G A6U G7C C15G G44C, 0.08. Turning to C3G C13A C15G G44A, the self-cleavage is 0.02.

Turning to C3A U9A G21C G29C C31A A39C, the self-cleavage came to 0.03. In the case of C3G A4U G30U G36C G40U G44C it was 0.02; in that of C3A U9A G27A U38C A41C U43C, 0.03. In the case of C3G A4C C15A G17U, the self-cleavage came out at 0.03.

As for C3G A12U A24C G29U, the self-cleavage came out at 0.05. For the variant C3G A41G C42G, the self-cleavage came to 0.09. With C3G C10U A16C G30C U38C the figure was 0.03. With C3A U20A G21A U34G the figure was 0.19. Consider C3G A6G G17A U28C G29U, for which the self-cleavage was found to be 0.04. With C3A G29C A41G the figure was 0.51. With C3A G21U U38A the figure was 0.26; with C3G C13G G29U U34A, 0.04.

In the case of C3G A4U A12U A25C G29U G44U, the self-cleavage amounted to 0.12. In the case of C3G C15U G22U C42G it was 0.05; in that of C3G A12C C13U C15U G22U U34C C45A, 0.08. With C3G C8A A24G C31G the figure was 0.27. With C3A U38A U43C, the self-cleavage was 0.13. On to C3G A12C C15A, for which the self-cleavage worked out at 0.07. With C3G C10U A26U G35A C37G the figure was 0.06. With C3G C8U G29A C37U C45A C46U the figure was 0.02. With C3G C10U G40C the figure was 0.09. As to C3A U20G U28G, the self-cleavage worked out at 0.06. In the case of C3G A11G G21U U32A U38A it was 0.02; in that of C3A G30C C37G, 0.05. Turning to C3A G36U A39U, the self-cleavage came out at 0.23. In the case of C3A U9A U38A it was 0.16. In the case of C3A U28C G30U U34C, the self-cleavage came to 0.13. In the case of C3G A16U G19A G22U it was 0.06; in that of C3A G22A G29C G33C A39G, 2.55. With C3A U28A G44C C45U C46U the figure was 0.05; with C3A G22U C31A G44U, 0.14. In the case of C3A U34A G44U it was 0.2; in that of C3G A12G C23A G44A C46A, 0.6. With C3A G44A C45U, the self-cleavage came out at 0.14. In the case of C3G C8U G30C G36C it was 0.15. Consider C3G C10U C42U, for which the self-cleavage worked out at 1.53. With C3G C10G A14C C45U the figure was 0.02; with C3A G22A A24C U28C G29U C31G U34A U38G, 0.03; with C3G A24G G30U U32C G40U, 0.14. With C3G C13G C18G U34A the figure was 0.12. With C3A G22C G30C the figure was 1.02. As for C3G C8G C15U, the self-cleavage stood at 0.46. For the variant C3G C13U C15U, the self-cleavage was 0.15.

In the case of C3G A11U C31G C45G, the self-cleavage came to 0.01.

Regarding C3G A4C U28G, the self-cleavage stood at 0.43. With C3A G30C C31U U38A, the self-cleavage is 0.17.

In the case of C3G A11U G22U, the self-cleavage was 0.08. On to C3G A6C C37G, for which the self-cleavage stood at 0.06. In the case of C3A G22A G35A A39U it was 0.08; in that of C3G A4C A41C, 0.15; in that of C3A U9G G29U G30A U32C U34C U43G G44A, 0.03. With C3G C10A C15G G40U C45G, the self-cleavage is 0.01. In the case of C3A G29C G40U it was 0.06; in that of C3G A14U G19A G30C G44A, 0.03.

In the case of C3G A12C U20C, the self-cleavage came to 0. In the case of C3G A11C A14C G30U G35A it was 0.02; in that of C3A U20A A24G G33A, 0.12; in that of C3G C13G G19U A24C G33U G40C C46A, 0.03. With C3G A39G G40A U43G C45A the figure was 0.11. In the case of C3A G29A C31U U32G U38G it was 0.05; in that of C3G A6U U9C C15G G44C, 0.03; in that of C3G A6C G35C C42G, 0.03. C3G C13U C18A U28G: the self-cleavage turned out to be 0.08. With C3G A24G U43A C45G the figure was 0.4; with C3A G36C G44U C46A, 0.09; with C3A U9G C37A, 1.11. With C3G C8U U9C G30U A41C the figure was 0. In the case of C3G A4U G5C C13A it was 0.57; in that of C3A U20G G27A G44A, 0.4. As for C3G A4U A41U, the self-cleavage was found to be 0.08. For the variant C3G A6C G17C G29U, the self-cleavage came to 0.53. With C3G A6G A26C G33A the figure was 0.08.

For C3G A4G G36C U43G, the self-cleavage was determined as 0. With C3G C18A G21A A26C C46G the figure was 0.01; with C3G A6G C18A C23U U34C G35A, 0.02; with C3G A4U C10G C13G G40A, 0.01. With C3A G33C G40A G44A the figure was 0.03; with C3A U32A G33A, 0.17; with C3A U28G U32C, 0.15. In the case of C3A G29U C46U it was 0.41; in that of C3G A24U G30C, 0.09. As for C3G A12G U20G U43C, the self-cleavage is 0.01.

Regarding C3G A14C G35C, the self-cleavage came out at 0.03. With C3G A41U C46A the figure was 0.06; with C3A G33U A39U C45U, 0.22. On to C3A G29A G30C C42A, for which the self-cleavage came out at 0.02. With C3G C8U C31A G40U the figure was 0.08. With C3G C10A G33C G35U the figure was 0.01; with C3G A14C G17C G21U C31A, 0.03; with C3G C8U C13U A14U G19U C23G G27C G35C, 0.33. In the case of C3G C8U A24C U28G, the self-cleavage came to 0.16. In the case of C3G A6U C8G G22A, the self-cleavage came to 0.02. With C3A G27C C31U the figure was 0.06; with C3G A16G C31A A39C G44A, 0.01. With C3A U9A G29A G44U the figure was 0.1; with C3G A6U G21A C23U G35C, 0.17; with C3G A16C U38G, 0.04. With C3G A12U A16G G29A G44U the figure was 0.54; with C3G A4C G17U, 0.19. Regarding C3A G33U G36U, the self-cleavage came to 0.46. With C3A G35C G40U C42G the figure was 0.22. With C3G A16G A25G the figure was 0; with C3G A6C C8U G21C, 0.19.

Take C3G A16G C18G: the self-cleavage amounted to 0.1.

For C3G A4C A12G G21A G22A G30C, the self-cleavage came to 0.13.

Regarding C3G A6G U20A G29C G36U, the self-cleavage came to 0.06. In the case of C3A U9C U20A it was 0.05.

Consider C3G A4G G22C C46G, for which the self-cleavage worked out at 0.03. In the case of C3G A26U A39G it was 0.01. In the case of C3G A6G A24G G29U G40A it was 0.04. Regarding C3G C8G C42U, the self-cleavage is 0.05. With C3A G22A A26G C37A the figure was 0.08; with C3G A25C G29A, 0.21; with C3A U28C A41U, 0.11.
